Laboratory results: PubChem BioAssay AID624173 (National Center for Advancing Translational Sciences (NCATS), 2012)
The whole screen tested about 410,000 compounds, of which about 490 (0.12%) were called active. Inconclusive results, whose numbers are uncertain, are shown with a selection of clear calls. Calls come from the whole dose curve; as a rule, active = well fitted inhibition curve with a large enough effect; inconclusive = small, poorly fitted or top-dose-only effect; inactive = flat fitted curve, though single readings scatter. A potency beside an inconclusive call is a rough fit, not a confirmed value.

molecular target: pyruvate kinase (Trypanosoma brucei) (UniProt Q57TT1); assay: qHTS of Trypanosoma Brucei Inhibitors; conditions: TbPYK enzyme, Kinase-Glo Plus ATP luminescence, 45 min; series mostly up to 76.8 µM; note: nearly all actives have a fitted effect of over 50% in size
How it was run: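 Assay buffer: 50 mM TEA pH 7.2, 100 mM KCl, 10 mM MgCl2, 0.05% BSA, 0.01% Tween-20. Pyruvate kinase from T. brucei plus substrate met compound, then ADP (130 uM final). Luminescence was read post 45 min RT.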
Potency is the fitted concentration of half-maximal effect; tags give direction and shape of the fitted curve.

SMILES | Potency
CC(=O)C1CCC2C3CCC4CC(O)CCC4(C)C3C(=O)CC12C (centres undefined) | inconclusive: 0.891 µM [inhibitor, full curve]
Cc1cccc(N2CCN(C(=O)Cn3sc4nc(C)cc(C)c4c3=O)CC2C)c1 (centres undefined) | inconclusive: 4.47 µM [inhibitor, full curve, poor fit]
Oc1ccc(/C=N/N(c2ccccc2)c2ccccc2)cc1O | inconclusive: 28.2 µM [inhibitor, partial curve]
O=C(CN1C(=O)NC2(CCCc3ccccc32)C1=O)NCC(F)(F)F (centres undefined) | inactive
O=c1c2ccccc2n2c(=S)[nH]nc2n1-c1ccccc1 | inconclusive: 2.82 µM [inhibitor, full curve]
C=CCn1c(C(CCCC)CC(C)O)n[nH]c1=S (centres undefined) | inconclusive: 28.2 µM [inhibitor, partial curve]
Cc1cc(-c2nn(-c3ccccc3F)cc2CN(C)CC(O)CO)c(C)s1 (centres undefined) | inconclusive: 50.1 µM [inhibitor, single point]
COC(=O)c1ccc(NN=Nc2ccc(C)cc2)cc1 | inconclusive: 31.6 µM [inhibitor, single point]
Cc1cccc2c1=NC(=O)/C(=C/c1c(O)[nH]c(=O)[nH]c1=O)C=2 | inconclusive: 14.1 µM [inhibitor, partial curve]
COc1ccc(NS(=O)(=O)c2cccc(N/C(=N\S(=O)(=O)c3ccccc3)c3ccc(F)cc3)c2)cc1 | inactive
Cc1ccc(CNn2cn[nH]c2=S)cc1 | inconclusive: 14.1 µM [inhibitor, partial curve, poor fit]
Cc1cc(C)c(C)c(SCC(=O)Nc2oc(C)c3c(C)n[nH]c(=O)c23)c1C | inconclusive: 50.1 µM [inhibitor, single point]
CCCc1ccc(C2C3=C(CC(C)(C)CC3=O)NC3=C2C(=O)c2ccccc23)cc1 (centres undefined) | inconclusive: 31.6 µM [inhibitor, single point]
COc1cc(/C=N/n2c(-c3n[nH]c4c3CCC4)n[nH]c2=S)cc(OC)c1O | inconclusive: 14.1 µM [inhibitor, partial curve, poor fit]
Cc1onc(-c2ccccc2)c1C(=O)Nc1nnc(COc2ccc(Cl)cc2)s1 | inconclusive: 4.47 µM [inhibitor, full curve, poor fit]
O=C(CN1CCN(c2ccccc2)CC1)Nc1nccs1 | inactive
COc1cc(/C=C/c2sc3ccccc3[n+]2CCCS(=O)(=O)[O-])ccc1O | inconclusive: 28.2 µM [inhibitor, partial curve, poor fit]
CCOC(=O)c1nn(-c2ccccc2C)c(=O)cc1OCC(=O)N1CCN(c2ccccc2)CC1 | inconclusive: 1.58 µM [inhibitor, full curve, poor fit]
COc1ccccc1-n1c(CNC(=O)c2ccco2)nnc1SCC(=O)Nc1cc(C)ccc1C | inconclusive: 35.5 µM [inhibitor, single point]
CCC(=O)c1ccc(OCC(O)Cn2nc(C)cc2C)cc1 (centres undefined) | inactive
CCOc1cc2[nH]c(=S)n(Cc3ccc(C(=O)NCCCN4CCOCC4)cc3)c(=O)c2cc1OCC | inconclusive: 25.1 µM [inhibitor, single point]
C=Cc1ccc(N=Cc2c(O)ccc3ccccc23)cc1 | inactive
Nc1cccc2[nH]c(C(F)(F)F)nc12 | inactive

SMILES | Potency
CN(Cc1nc2ccccc2c(=O)[nH]1)C(=O)c1cc(-c2ccc(Br)cc2)nc2ccccc12 | inactive
COc1ccccc1-n1c(-c2ccc(NS(C)(=O)=O)cc2)n[nH]c1=S | inconclusive: 10 µM [inhibitor, partial curve, poor fit]
c1cc(CNc2ccc3c(c2)OCO3)ccn1 | inactive
Fc1cccc(/C=N/Nc2nccnc2Cl)c1 | inconclusive: 31.6 µM [inhibitor, partial curve]
CCC(=O)Nc1cccc(-c2nnc(SCC(=O)c3ccccc3)n2C)c1 | inconclusive: 35.5 µM [inhibitor, single point]
COC(=O)c1ccc(COc2ccc(NC(C)=O)cc2)o1 | inactive
COc1ccc(OC)c(S(=O)(=O)Nc2cc3c(cc2N2CCCC2)n(C)c(=O)c(=O)n3C)c1 | inconclusive: 31.6 µM [inhibitor, partial curve, poor fit]
COc1cc(C(=O)NCCOc2cccc(C)c2)c(Br)c(OC)c1OC | inconclusive: 44.7 µM [inhibitor, single point]
O=C(Cc1cccs1)NCCSc1c(-c2ccc(Cl)cc2)[nH]c2ccccc12 | inactive
O=c1cc(CN2CCN(S(=O)(=O)c3ccccc3)CC2)nc2ccc(Cl)cn12 | inactive
S=c1[nH]nc(CCc2ccccc2)n1-c1ccc(Cl)cc1 | inconclusive: 7.94 µM [inhibitor, partial curve]
O=c1c(Cl)c(N2CCCCC2)cnn1-c1nc2ccccc2[nH]1 | inconclusive: 17.8 µM [inhibitor, partial curve, poor fit]
N#Cc1sc2nc(-c3cccs3)cc(-c3ccccc3)c2c1N | inconclusive: 50.1 µM [inhibitor, single point]
O=C(CSc1nc2ccc(Cl)cc2[nH]1)N1CCN(C(=O)c2ccco2)CC1 | inconclusive: 31.6 µM [inhibitor, partial curve, poor fit]
CCn1c(-c2cc(-c3cc(OC)ccc3OC)nc3ccccc23)n[nH]c1=S | inconclusive: 12.6 µM [inhibitor, partial curve]
CCOc1ccc(S(=O)(=O)NCCc2ccccn2)cc1 | inactive
Cc1ccc(NC(=O)CSc2nc3ccccc3nc2N2CCCC2)cc1 | inactive
O=[N+]([O-])c1cccc(C(=S)N2CCN(c3ccccc3)CC2)c1 | inconclusive: 20 µM [inhibitor, partial curve]
O=C1NC(=S)S/C1=C1\Sc2ccccc2N1CCCS(=O)(=O)O | inactive
O=S1(=O)CCN=C2SC3=C(CCCC3)N21 | inconclusive: 50.1 µM [inhibitor, single point]
O=C(Nc1ccccc1)c1cc(-n2cnnc2)ccc1Cl | inactive
COCCn1c(-c2cccs2)csc1=Nc1cccnc1 | inconclusive: 17.8 µM [inhibitor, partial curve, poor fit]
Cc1ncsc1C(=O)Nc1nc2c(s1)CCCC2 | inconclusive: 39.8 µM [inhibitor, partial curve, poor fit]

SMILES | Potency
O=C(Cn1sc2ccccc2c1=O)NC12CC3CC(CC(C3)C1)C2 | inconclusive: 4.47 µM [inhibitor, full curve]
COCCn1c(C)cc(C2=NNC(=Nc3ccccc3)SC2)c1C | inconclusive: 5.62 µM [inhibitor, partial curve, poor fit]
S=c1[nH]nc(-c2cccc(Br)c2)o1 | inconclusive: 15.8 µM [inhibitor, partial curve]
CCOC(=O)c1ccc2c(c1)C1C=CCC1C(C(=O)OCC)N2 (centres undefined) | inconclusive: 28.2 µM [inhibitor, partial curve]
COc1ccc(S(=O)(=O)N/N=C\c2ccc3c(c2)OCO3)cc1 | inactive
O=C(COc1ccc(Cl)cc1Cl)NC(=S)N1CCCc2ccccc21 | inconclusive: 50.1 µM [inhibitor, partial curve, poor fit]
C[C@]12CC[C@@H](O)C[C@@H]1CC[C@@H]1[C@@H]2CC[C@]2(C)C(=O)CC[C@@H]12 | inactive
Cc1cccc(/C(N)=N/OC(=O)c2cccs2)c1 | inconclusive: 28.2 µM [inhibitor, partial curve]
Cc1ccc(/C=N/n2c(-c3ccncc3)n[nH]c2=S)s1 | inconclusive: 3.55 µM [inhibitor, full curve]
Cn1c(=O)c2c([nH]c(=S)n2Cc2ccc(Cl)cc2)n(C)c1=O | active: 3.55 µM
COc1ccc(NC(=O)C2CCN(C(=O)c3ccc(OC)cc3)CC2)cc1 | inconclusive: 31.6 µM [inhibitor, single point]
N/C(=N\OC(=O)c1cccs1)c1cccc([N+](=O)[O-])c1 | inactive
Cc1ccc(Nc2n[nH]c(=S)s2)cc1F | inconclusive: 11.2 µM [inhibitor, partial curve]
Cc1ccc(OCC(=O)O/N=C(\N)Cc2ccc(Cl)cc2)cc1 | inconclusive: 39.8 µM [inhibitor, single point]
Nc1cc(OCc2ccccc2)ccc1OCc1ccccc1 | inconclusive: 35.5 µM [inhibitor, partial curve, poor fit]
COc1ccc(Cc2nnc(NS(=O)(=O)Cc3ccccc3)s2)cc1 | inconclusive: 3.16 µM [inhibitor, full curve]
Oc1ccc(NCc2cccs2)cc1 | inconclusive: 6.31 µM [inhibitor, full curve]
O=C(NCc1n[nH]c(=S)n1-c1ccc(Br)cc1)c1ccc(S(=O)(=O)N2CCCC2)cc1 | inconclusive: 12.6 µM [inhibitor, partial curve, poor fit]
CC1(C)Cc2[nH]c(=S)c(C#N)cc2CO1 | inconclusive: 12.6 µM [inhibitor, partial curve, poor fit]
CC(/C=N/n1c(-c2cc(C)[nH]n2)n[nH]c1=S)=C\c1ccccc1 | active: 5.01 µM
O=C(Nc1ccc(N2CCOCC2)c(Cl)c1)c1ccc2c(c1)OCCO2 | inactive
Cc1c(NC(=O)CN2CCN(c3ccc(O)cc3)CC2)c(=O)n(-c2ccccc2)n1C | inconclusive: 39.8 µM [inhibitor, single point]
S=c1[nH]c(-c2ccccc2)cn1-c1ccccc1 | inconclusive: 2.51 µM [inhibitor, full curve]
